Results reported in the supplement of paper PMC4967469.
By IC50 is meant the dose at which the fit gives 50% viability; fits outside the tested doses are given as limits. For AUC the same curve is integrated over the 256-fold range of doses and scaled to a fraction; the more sensitive the line, the further below 1. For part of these data: Where the top dose is marked as inferred, it comes from the curve model; the source does not state it. For part of these data: Drugs with an entry number were screened twice under separate entries, and the two screens often disagree.

Key:
Test in all cases: Viability of human cancer cell lines after 72 h of drug (GDSC screen)
[1] = compound: Fc1cc(-c2ccnc(Nc3ccc(-n4cnc(N5CCOCC5)n4)cc3)n2)cc(N2CCOCC2)c1 [JNK-9L]; settings: top dose 5.12 µM; top dose inferred
Experimental: (§1)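 Human cancer cell lines in 384-well plates, medium with 10% serum, drug for 72 h over a 256-fold dose range (nine 2-fold or five 4-fold steps up to the top dose). Adherent lines were fixed and stained with the nucleic acid dye Syto60, suspension lines read with resazurin; signal relative to control wells, capped at 0 and 100%. One two-parameter sigmoid per drug and line, fitted in a mixed model over all curves with the slope shared within a line.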

[2] = compound: NCC(=O)Nc1ccc(-n2nc(C(F)(F)F)cc2-c2ccc3c(ccc4ccccc43)c2)cc1 [OSU-03012]; settings: top dose 16 µM; top dose inferred
Experimental: as §1

[3] = compound: O=c1[nH]cc(F)c(=O)[nH]1 [5-Fluorouracil]; settings: top dose 32 µM; top dose inferred
Experimental: as §1

[4] = compound: OC[C@H](Cc1ccccc1)Nc1nc(Oc2ccc3c(c2)CCC3)nc2c1ncn2Cc1ccc(-c2ccccc2)cc1 [QS11]; settings: top dose 10.24 µM
Experimental: as §1

[5] = compound: C#Cc1cccc(Nc2ncnc3cc(OC)c(OCCCCCCC(=O)NO)cc23)c1 [CUDC-101]; settings: top dose 5.12 µM; top dose inferred
Experimental: as §1

[6] = compound: COc1cc(F)c(F)c(Nc2ccc(I)cc2F)c1NS(=O)(=O)C1(C[C@H](O)CO)CC1 [RDEA119]; settings: top dose 5 µM, top dose inferred
Experimental: as §1

[7] = compound: CC(C)(C)c1cc(NC(=O)Nc2ccc(-c3cn4c(n3)sc3cc(OCCN5CCOCC5)ccc34)cc2)no1 [AC220]; settings: top dose 1.024 µM; top dose inferred
Experimental: as §1

Cell Line	AUC [1]	IC50 [1]	AUC [2]	IC50 [2]	AUC [3]	IC50 [3]	AUC [4]	IC50 [4]	AUC [5]	IC50 [5]	AUC ([6]; screen: GDSC drug entry 1014)	IC50 ([6]; screen: GDSC drug entry 1014)	AUC ([6]; screen: GDSC drug entry 1526)	IC50 ([6]; screen: GDSC drug entry 1526)	AUC [7]	IC50 [7]
JHU-022 (head and neck, adherent)	0.799	3.24 µM	0.801	10.3 µM	0.978	> 32 µM	0.981	> 10.2 µM	0.666	1.05 µM	0.624	0.752 µM	0.533	0.395 µM	0.982	> 1.02 µM
JIMT-1 (breast, adherent)	0.57	0.505 µM	0.764	6.23 µM	0.927	> 32 µM	0.912	> 10.2 µM	0.786	2.4 µM	0.871	> 5 µM	0.839	3.81 µM	0.985	> 1.02 µM
JJN-3 (haematopoietic neoplasm, suspension)	0.529	0.378 µM	0.75	4.42 µM	0.873	21.5 µM	0.978	> 10.2 µM	0.371	0.151 µM	0.726	1.19 µM	0.975	> 5 µM	0.986	> 1.02 µM
JM1 (B-cell lymphoma, suspension)	0.558	0.451 µM	0.674	2.83 µM	0.852	19.5 µM	0.902	10 µM	0.238	0.0645 µM	0.991	> 5 µM	0.989	> 5 µM	0.99	> 1.02 µM
JSC-1 (B-cell lymphoma, suspension)	0.585	0.546 µM	0.691	3.4 µM	0.19	0.24 µM	0.882	> 10.2 µM	0.161	0.0298 µM	0.758	1.72 µM	–	–	0.934	> 1.02 µM
JURL-MK1 (chronic myeloid leukaemia, suspension)	0.646	0.81 µM	0.818	8.94 µM	0.593	3.6 µM	0.863	8.82 µM	0.646	0.812 µM	0.197	0.0396 µM	0.609	0.623 µM	0.961	> 1.02 µM
JVM-2 (lymphoid neoplasm, suspension)	0.8	3.15 µM	0.857	> 16 µM	0.618	4.56 µM	0.972	> 10.2 µM	0.792	2.94 µM	0.928	> 5 µM	0.9	> 5 µM	0.98	> 1.02 µM
JVM-3 (lymphoid neoplasm, suspension)	0.817	2.91 µM	0.869	15.2 µM	0.767	12.1 µM	0.987	> 10.2 µM	0.513	0.347 µM	0.861	4.34 µM	0.888	> 5 µM	0.985	> 1.02 µM
JiyoyeP-2003 (Burkitt lymphoma, suspension)	0.524	0.368 µM	0.755	4.85 µM	0.603	3.69 µM	0.963	> 10.2 µM	0.333	0.117 µM	0.99	> 5 µM	0.989	> 5 µM	0.991	> 1.02 µM
K2 (melanoma, adherent)	0.624	0.777 µM	0.832	14.7 µM	0.975	> 32 µM	0.971	> 10.2 µM	0.701	1.41 µM	0.602	0.648 µM	0.294	0.0683 µM	0.969	> 1.02 µM
K5 (thyroid, adherent)	0.613	0.645 µM	0.827	9.22 µM	0.923	> 32 µM	0.937	> 10.2 µM	0.617	0.659 µM	–	–	0.302	0.0891 µM	0.988	> 1.02 µM
KALS-1 (glioma, adherent)	0.592	0.628 µM	0.797	11 µM	0.847	> 32 µM	0.841	> 10.2 µM	0.62	0.773 µM	–	–	0.722	1.71 µM	0.976	> 1.02 µM
KARPAS-45 (lymphoblastic leukaemia, suspension)	0.588	0.533 µM	0.724	3.78 µM	0.864	20.7 µM	0.896	8.86 µM	0.228	0.0618 µM	0.946	> 5 µM	0.99	> 5 µM	0.958	> 1.02 µM
KARPAS-299 (anaplastic large cell lymphoma, suspension)	0.574	0.49 µM	0.759	4.75 µM	0.264	0.491 µM	0.981	> 10.2 µM	0.473	0.274 µM	0.972	> 5 µM	0.967	> 5 µM	0.988	> 1.02 µM
KARPAS-422 (B-cell lymphoma, suspension)	0.538	–	0.669	2.94 µM	0.864	27.3 µM	0.801	–	0.507	0.334 µM	0.969	> 5 µM	0.982	> 5 µM	0.982	> 1.02 µM
KARPAS-620 (haematopoietic neoplasm, suspension)	0.541	0.406 µM	0.702	3.36 µM	0.665	5.34 µM	0.731	2.59 µM	0.294	0.0927 µM	0.857	3.19 µM	0.616	0.621 µM	0.979	> 1.02 µM
KE-37 (lymphoblastic leukaemia, suspension)	0.459	0.254 µM	0.5	1 µM	0.62	3.93 µM	0.871	5.97 µM	0.337	0.127 µM	0.977	> 5 µM	0.994	> 5 µM	0.979	> 1.02 µM
